Test results published in PubChem BioAssay AID1159614 (National Center for Advancing Translational Sciences (NCATS), 2016).
Hit rate of the full screen: of about 45,000 compounds, about 65 (0.1%) were called active. Calls come from the whole dose curve; as a rule, active = well fitted activation curve with a large enough effect; inconclusive = small, poorly fitted or top-dose-only effect; inactive = no such curve, though single readings can be large or run the other way. The list shows a part of the results.

molecular target: Galactocerebrosidase (Homo sapiens) (UniProt P54803); experiment: A Novel Cell-Based Assay to Identify Small Molecules for B -Galactocerebrosidase; settings: 145M-Twi-hGALC-G270D cells, HMU-beta-Gal fluorescence, 48 h; series mostly up to 57.5 µM; activation: at the top concentration; note: 0% is about no effect; nearly all actives have a fitted effect of over 65% in size
Procedure, shortened: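 qHTS, 1536-well; 145M-Twi-hGALC-G270D cells (WT line also made) in DMEM/F12 + 10% FBS; compound incubation on live cells; HMU-β-gal 0.1 mM final, pH 5.2, NaTC; carbonate stop; fluorescence increase = enhanced residual activity.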

UniProt P54803, sequence (P54803 whole entry, looked up): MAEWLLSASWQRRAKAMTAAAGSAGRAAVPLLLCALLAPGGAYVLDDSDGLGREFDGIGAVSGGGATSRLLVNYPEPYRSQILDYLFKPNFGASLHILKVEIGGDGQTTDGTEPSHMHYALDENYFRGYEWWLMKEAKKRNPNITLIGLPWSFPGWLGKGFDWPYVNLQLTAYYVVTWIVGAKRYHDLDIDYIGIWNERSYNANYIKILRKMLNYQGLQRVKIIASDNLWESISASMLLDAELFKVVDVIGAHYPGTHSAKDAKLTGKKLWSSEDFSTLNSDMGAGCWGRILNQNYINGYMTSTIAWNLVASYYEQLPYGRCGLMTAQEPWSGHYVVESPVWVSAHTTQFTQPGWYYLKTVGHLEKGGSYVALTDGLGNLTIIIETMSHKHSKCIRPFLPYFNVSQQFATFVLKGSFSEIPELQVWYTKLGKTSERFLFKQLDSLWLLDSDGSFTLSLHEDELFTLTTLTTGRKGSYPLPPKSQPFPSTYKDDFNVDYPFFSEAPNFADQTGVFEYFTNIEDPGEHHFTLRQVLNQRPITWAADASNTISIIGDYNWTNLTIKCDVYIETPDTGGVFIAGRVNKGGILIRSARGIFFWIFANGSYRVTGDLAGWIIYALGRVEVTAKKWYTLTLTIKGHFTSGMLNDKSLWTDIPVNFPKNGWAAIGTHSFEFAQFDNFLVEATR

activation, inactive:
CCOc1ccccc1NC(=O)C(CC)Sc1nc2ncccc2[nH]1 (centres undefined) 6.2%
Cc1ccc2oc3c(c(=O)c2c1)C(c1ccccc1F)N(CCCN(C)C)C3=O (centres undefined) -15%
O=C(NCc1ccc2c(c1)CCN2C(=O)c1ccccc1)c1ccccc1 0.26%
CCCSc1nnc2c(n1)OC(c1ccc(Br)s1)Nc1ccccc1-2 (centres undefined) -27%
COc1ccc(CNC(=O)C2=C(C)C(=O)OC23CCCCC3)cc1 -10.5%
COc1ccc(-n2ncc3c2ncn2nc(COc4ccc(Cl)cc4)nc32)cc1 -12.3%
COc1ccccc1CNS(=O)(=O)c1ccc2c(c1)CC(=O)N2C 23.5%
CCOC(=O)N1CCN(C(=O)c2c(C)nn(-c3cccc(C)c3)c2-n2cccc2)CC1 4.62%
COC(=O)c1sc2ncccc2c1-n1c(C)ccc1C -5.38%
Cc1ccc(C)c(N2CCN(C(=O)CCS(=O)(=O)c3cc4c(cc3Cl)NC(=O)CO4)CC2)c1 -35.7%
Cc1ccc(S(=O)(=O)N2CCc3cc(C(=O)Nc4ccc(C(F)(F)F)cc4)ccc32)cc1 -14%
Cc1cc(C(F)F)n2nc(C(=O)Nc3ccc(C(C)C)cc3)nc2n1 -11.1%
Cc1oc(-c2ccccc2Cl)nc1CS(=O)CC(=O)NCc1ccc(Cl)cc1 (centres undefined) -10.7%
COc1ccc(CCNC(=O)CSc2cn(CCNC(=O)c3cccc(C(F)(F)F)c3)c3ccccc23)cc1OC 0.374%
Cc1ccc(-n2ncc3c(N4CCC(C(N)=O)CC4)ncnc32)cc1 -4.37%
O=C(Cn1ncc2ccsc2c1=O)N1CCN(c2ccc(F)cc2)CC1 -15.2%
CCC1CN(C(=O)Nc2cccc3c2CCCC3)c2cc(Cl)ccc2O1 (centres undefined) -10.2%
CCOc1ccc(-c2cn(-c3ccc(C)cc3)c(SCC(=O)Nc3ccc(C)cc3)n2)cc1 -10.3%
O=C(Cn1c2ncccc2c(=O)n1-c1ccccc1)NCc1ccccc1Cl -19%
COc1cccc(CNC(=O)C(C)n2ncn3cccc3c2=O)c1OC (centres undefined) -9.26%
Cc1ccc(NC(=O)Cc2coc3ccc(C(C)C)cc23)c(C)c1 -21.3%
O=S(=O)(Nc1nc2ccccc2nc1Nc1ccccc1Br)c1ccccc1 -25.1%
Fc1ccc(-c2ccc(CNCCSc3nnnn3-c3ccccc3)o2)cc1 -11.1%
Cc1ccc(COc2ccc(-c3cc(C(F)(F)F)n4nc(C)cc4n3)cc2)cc1 9.63%
O=C(CSc1nc2c([nH]c3ccccc32)c(=O)n1-c1cccc(Cl)c1)NCC1CCCO1 (centres undefined) -25.7%
COc1ccc(CNS(=O)(=O)c2cc3c4c(c2)CCN4C(=O)CC3)cc1 -0.723%
Cc1ccc(NC(=O)CSc2nccn2Cc2ccco2)cc1Cl -7.26%
O=c1ccc2cc(S(=O)(=O)NCc3ccc(Br)cc3)ccc2[nH]1 -8.42%
COc1cccc(NC(=O)CSCc2cc(=O)c3ccc(C)c(C)c3[nH]2)c1 -6.44%
CCC(=O)N1CCc2cc(S(=O)(=O)NC(CC(C)C)C(=O)NCCc3cccc(C)c3)ccc21 (centres undefined) -9.65%
COc1ccc(OC)c(CNS(=O)(=O)c2ccc3[nH]c4c(c3c2)CCCCC4)c1 -39.7%
Cn1c(=O)c2c(n3c4ccccc4nc13)NC(=O)CC2c1cccc(F)c1 (centres undefined) -5.42%
O=C(CCCCn1c(=O)c2ccccc2n(Cc2ccccc2Cl)c1=O)NCc1ccc2c(c1)OCO2 -6.67%
CCNc1ccc(-c2nc(-c3ccccn3)no2)cc1[N+](=O)[O-] 0.338%
COc1ccc(-c2onc(C)c2C)cc1S(=O)(=O)NCC(C)c1ccccc1 (centres undefined) -1.58%
Cc1cc(NC(=O)COCc2cc(-c3ccc(F)cc3)on2)ccc1Br -11.8%
CC(C)Oc1cccc(C(=O)Nc2ccc3oc(-c4cccc(Cl)c4)nc3c2)c1 -10.1%
CCOc1ccc(CNC(=O)c2ccc3nc(CC)c(CC)nc3c2)cc1 -21.8%
COc1cccc(N2CCN(C(=O)CCCn3c(=O)[nH]c4ccc(Br)cc4c3=O)CC2)c1 -11.6%
Cc1ccc(Nc2c(-c3ccc(Cl)cc3)nc3sccn23)c(C)c1 -6.24%
Cc1ccc(C)c(NC(=O)N2CCC(CN3CCOCC3)CC2)c1 -2.35%
COC(=O)C1=C(C)NC(C)=C(C(=O)OCC(C)C)C1c1ccccc1[N+](=O)[O-] (centres undefined) -12.7%
CCOc1ccc(CCNS(=O)(=O)c2c(C)nc3scc(C)n3c2=O)cc1OCC -15.9%
CCCn1c2ccccc2c2cnn(CC(=O)N3CCN(c4ccccc4F)CC3)c(=O)c21 -3.23%
CC(=O)N1CCCc2cc(S(=O)(=O)NCc3cccc(C)c3)ccc21 -16.7%
CCn1c(=O)c2cc(C(=O)NCCCOC)sc2c2ccccc21 -0.0299%
Cc1cc(C)n(-c2nc3ccccc3nc2Nc2ccc(Cl)cc2Cl)n1 3.83%
O=c1c2cnn(-c3ccc(F)cc3)c2ncn1Cc1cccc(Cl)c1 -12%
CCCN(CCC)C(=O)Cn1nnc2sc(-c3ccccc3)cc2c1=O -7.58%
COc1ccc(NC(=O)Cn2c(=O)n(-c3ccccc3)c(=O)c3c4c(sc32)CCCC4)c(OC)c1 -1.4%
Cc1ccc(CNC(=O)c2nc(SCc3ccc(F)cc3)ncc2Cl)cc1 -17.3%
CC(C)Oc1ccc(CNS(=O)(=O)c2ccc3c(c2)C(C)(C)C(=O)N3C)cc1 -11.6%
Cc1ccc(NC(=O)CSc2ncc(S(=O)(=O)c3ccc(C(C)C)cc3)c(=O)[nH]2)cc1C 7.44%
Cc1ccc(C(=O)c2cn(Cc3cccc(C)c3)c3nc(C)ccc3c2=O)cc1 -9.71%
Cc1nn2c(=O)cc(COC(=O)c3cccc(NC(=O)COc4ccccc4Cl)c3)nc2s1 -4.56%
COC(=O)c1cc(S(=O)(=O)N2CCN(c3ccc(OC)cc3)CC2)c[nH]1 -0.224%
COc1ccc(S(=O)(=O)n2nc(C)c(S(=O)(=O)N3CCCCCC3)c2C)cc1 -2.43%
Cc1cc(C)n2c(Nc3ccc4c(c3)OCCO4)c(-c3ccc(Cl)cc3)nc2n1 -6.39%
O=C(CCNS(=O)(=O)c1ccc2c(c1)CCCC(=O)N2)NCc1ccccc1Cl -11.8%
CCC(=O)N1CCc2cc(CNC(=O)Nc3ccccc3Cl)ccc21 -9.93%
CCOc1cc(C#N)c(NC(=O)c2cccc(S(=O)(=O)N3CCOCC3)c2)cc1OCC -13.3%
COc1cccc(NC(=O)CN(C)S(=O)(=O)c2cccs2)c1 -5.56%
CC(=O)Nc1ccc(OCCOCCOc2ccc(NC(C)=O)cc2)cc1 -8.52%
COc1cc(CNC(=O)CSCc2nc3cccnc3n2C2CCCCC2)cc(OC)c1OC 13.7%
Cc1ccc(C)c(NC(=O)CCc2nc(-c3ccc(C(C)(C)C)cc3)no2)c1 -3.23%
Cc1ccc(C(=O)Nc2ccc3c(c2)N(C)C(=O)c2ccccc2S3)cc1 -9.31%
CCc1ccc(NC(=O)c2cc(S(=O)(=O)N3CCCC3)ccc2F)cc1 -8.68%
COc1ccc(CCNC(=O)c2cc(C)nc3c2c(C)nn3-c2ccccc2)cc1OC -20.5%
CCCS(=O)(=O)N1CC(=O)N(c2ccccc2F)C(C)(C(=O)NC2CCCCCC2)C1 (centres undefined) -10.1%
CCC1CCCCN1CCCNC(=O)c1ccc2c(c1)N(Cc1ccccc1F)C(=O)c1ccccc1S2(=O)=O (centres undefined) -16.7%
O=C(Nc1ccc([N+](=O)[O-])cc1)Nc1ccc([N+](=O)[O-])cc1 -20.2%
CC(C(=O)NCc1ccccc1)N1Cc2ccccc2C1=O (centres undefined) -8.14%
CC1CCN(C(=O)CSc2nc(-c3ccc(C(C)C)cc3)no2)CC1 0.391%
COc1ccccc1N1CCN(C(=O)CSc2nc3ccccc3nc2Cc2ccc(F)cc2)CC1 -2.03%
COc1ccccc1Cn1c(CNS(=O)(=O)c2ccc3c(c2)CCCC3)nc2cccnc21 -6.92%
Cc1csc2nc(COc3ccc(NC(=O)COc4ccccc4F)cc3)cc(=O)n12 -3.41%
CC(C)(C)C1CCc2c(sc(NC(=O)Cn3nnc(-c4cccc(C(F)(F)F)c4)n3)c2C#N)C1 (centres undefined) -14%
CCCCCOC(=O)CSc1nc2sc3c(c2c(=O)n1Cc1ccccc1)CC(C)(C)OC3 -6.35%
Cn1c(CNC(=O)CSc2n[nH]c(-c3ccccc3)n2)nc2ccccc21 -4.02%
O=C(Cn1c(=O)n(-c2ccc(Cl)cc2)c(=O)c2c3c(sc21)CCC3)c1ccc(F)cc1 -14.9%
CCN1CCSc2ccc(C(=O)NCc3cccc(F)c3)cc21 -10.8%
CCCCc1nn2c(=O)cc(COC(=O)c3ccc(NC(=O)c4cccs4)cc3)nc2s1 -7.64%
Fc1ccc(Nc2nc3nonc3nc2Nc2cccc(C(F)(F)F)c2)cc1 -21.9%
O=[N+]([O-])c1cc(-c2nc(-c3ccccc3)no2)ccc1N1CCCC1 2.43%
Cc1ccccc1NCc1cccn1-c1nnc(N2CCOCC2)s1 -22.2%
NCCCC(N)(C(=O)O)C(F)F (centres undefined) -15.7%
CC(C)OCCCn1c(SCC(=O)Nc2ccc(F)cc2)nc2c(sc3ccccc32)c1=O -7.37%
CCC(Sc1nc2c(sc3ccccc32)c(=O)n1CCCC(=O)NC1CCCC1)C(=O)Nc1cccc(OC)c1 (centres undefined) -8.61%
CC(C)CC(=O)N1CC(=O)Nc2ccc(F)cc2C1c1ccccc1 (centres undefined) -9.66%
Cc1ccc(NC(=O)CSc2nnc3[nH]c(=O)cc(C)n23)cc1Cl -7.3%
COc1cccc(CNC(=O)CCc2nnc3n(CC(C)C)c(=O)c4ccccc4n23)c1 -4.59%
Cc1sc2c(c1C)c(=O)n(-c1ccccc1)c(=O)n2CC(=O)c1ccc(Cl)cc1 4.12%
CCC(=O)N1c2ccccc2CC1C(=O)NCCN1CCN(c2cccc(C)c2C)CC1 (centres undefined) -2.08%
Cc1ccc(-c2nc3ccccc3o2)cc1NC(=O)c1cccc2c(Cl)cccc12 -29.8%
Cc1nc2sccn2c(=O)c1S(=O)(=O)Nc1ccc(N2CCN(S(C)(=O)=O)CC2)cc1 -17.2%
Cc1cccc(Nc2nc(-c3ccccc3)c3cc(C)ccc3n2)c1 1.22%
O=C(CSc1nc(-c2ccccc2)[nH]c1-c1ccccc1)Nc1ccc2c(c1)OCO2 -16.2%
CCCc1ccc(OC(=O)CSc2nnc(-c3cccs3)o2)cc1 -13.7%
CCS(=O)(=O)N1CCc2cc(C(=O)Nc3cccc(C)c3C)ccc21 -43.9%
